About 4,500 (2.2%) of roughly 200,000 compounds were called active. Inconclusive means that the source gave no clear call. Such entries were picked first, then a sample of the others. The call rests on the fitted dose curve; in most records, active means well fitted inhibition curve with a large enough effect; inconclusive means small, poorly fitted or top-dose-only effect, or effect the other way; inactive means flat fitted curve, though single readings scatter. Potencies of inconclusive entries are doubtful fits and often do not repeat.
These compounds were tested against Cruzipain (Trypanosoma cruzi) (UniProt P25779) (assay: qHTS Assay for Promiscuous and Specific Inhibitors of Cruzain (without detergent)). Conditions: purified cruzain, Z-FR-AMC fluorescence, no detergent.
Method in brief: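 Purified cruzain at 1.5 nM, pre-incubated 15 min with compound at room temperature in 100 mM sodium acetate pH 5.5, 5 mM DTT, 0.00005% Triton X-100. Reaction started with 2 uM Z-FR-AMC; AMC fluorescence increase over 60 s gives rate.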
Further: nearly all actives have a fitted effect of over 40% in size.
Potency means the concentration at half of the fitted maximal effect; tags describe the fitted curve by direction and shape.
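Wherever max response, negative = inhibition is given: plate controls were enzyme without inhibitor for no effect and buffer without enzyme for full effect.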

Chain of UniProt P25779 (P25779 whole entry, looked up): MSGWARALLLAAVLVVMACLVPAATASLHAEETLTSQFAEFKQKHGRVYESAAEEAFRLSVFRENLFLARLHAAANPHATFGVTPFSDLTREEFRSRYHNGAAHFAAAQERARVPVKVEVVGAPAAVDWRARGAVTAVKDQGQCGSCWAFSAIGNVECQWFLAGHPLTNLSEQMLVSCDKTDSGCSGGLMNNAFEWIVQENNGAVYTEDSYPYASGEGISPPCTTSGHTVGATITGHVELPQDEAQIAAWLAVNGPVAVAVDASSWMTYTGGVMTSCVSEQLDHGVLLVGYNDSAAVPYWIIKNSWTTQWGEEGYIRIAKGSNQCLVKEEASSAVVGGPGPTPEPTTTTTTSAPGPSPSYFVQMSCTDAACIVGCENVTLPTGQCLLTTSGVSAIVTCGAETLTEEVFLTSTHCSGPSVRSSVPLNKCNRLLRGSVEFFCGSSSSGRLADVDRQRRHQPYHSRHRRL

Row | Structure (SMILES) | Potency | max response, negative = inhibition
1 | Cc1ccc2c(CNCc3ccc(C)o3)c(C(=O)O)n(Cc3ccc(F)cc3)c2c1 | inconclusive: 39.8 µM [activator, single point] | –
2 | CCCCCN(CCCCC)C(=O)[C@H](CCC(=O)O)NC(=O)c1ccc(Cl)c(Cl)c1 | inconclusive: 15.8 µM [activator, partial curve] | –
3 | Cc1nn(Cc2ccc(Cl)cc2Cl)c(C)c1NC(=O)c1nc2n(n1)C(C(F)F)CC(C)N2 (stereo not given) | inconclusive: 31.6 µM [activator, single point] | –
4 | Cc1ccc(C(=O)Oc2cc(-c3ccc4c(c3)OCO4)cc(=O)c3c(C)oc(C)c23)cc1 | inconclusive: 15.8 µM [inhibitor, partial curve] | –
5 | Nc1nnnn1/N=C/C(Br)=C/c1ccccc1 | inconclusive: 39.8 µM [inhibitor, single point] | –
6 | O=C(c1ccc(Cl)cc1)N1CCCCC(Sc2nnc(-c3ccc4c(c3)OCO4)o2)C1=O (stereo not given) | inconclusive: 39.8 µM [inhibitor, single point] | –
7 | O=C1/C(=C/c2ccccc2O)SC(=S)N1Cc1cccnc1 | – | inactive: -2.63%
8 | O=C(/C=C/c1ccccc1)NC(NC(=S)Nc1cccc(Cl)c1)C(Cl)(Cl)Cl (stereo not given) | inconclusive: 39.8 µM [inhibitor, single point] | –
9 | O=C(Cc1ccccc1)Nc1sc2c(c1C(=O)Nc1ccc(Br)cc1)CCCC2 | – | inactive: -17.5%
10 | O=C(NCCC1=CCCCC1)C(=O)NCc1ccccc1 | inconclusive: 39.8 µM [inhibitor, single point] | –
11 | CC(=O)OCC1OC(Oc2cc(OC(C)=O)c3c(=O)cc(-c4ccc(OC(C)=O)c(OC(C)=O)c4)oc3c2)C(OC(C)=O)C(OC(C)=O)C1OC(C)=O (stereo not given) | inconclusive: 20 µM [activator, partial curve] | –
12 | CC1(c2ccc(Cl)cc2)CC(C)(C)N(C(=O)c2cccc(F)c2)c2ccccc21 (stereo not given) | inconclusive: 25.1 µM [inhibitor, single point] | –
13 | COCCCn1c(-c2ccc(S(=O)(=O)N3CCOCC3)cc2)csc1=Nc1ccccc1 | inconclusive: 31.6 µM [activator, partial curve] | –
14 | CCNC(=O)c1cc2c(=O)n3cccc(C)c3nc2n(Cc2ccc(C)cc2)c1=N | – | inconclusive: -81.2% [inhibitor]
15 | CC1CC1C(=O)Nc1ccc(-c2ccccc2)cc1 (stereo not given) | inconclusive: 31.6 µM [inhibitor, single point] | –
16 | Cc1ccc(-c2csc(=Nc3ccccc3)n2Cc2ccc3c(c2)OCO3)cc1 | inconclusive: 15.8 µM [inhibitor, partial curve] | –
17 | CC1CN(Cc2nc3c(c(=O)n(C)c(=O)n3C)n2Cc2cccc(Cl)c2)CC(C)O1 (stereo not given) | inconclusive: 25.1 µM [activator, single point] | –
18 | Cc1csc2nc(CNC(=O)C3CCCCC3)cn12 | inconclusive: 39.8 µM [inhibitor, single point] | –
19 | COc1ccc(NC(=O)CCCn2c(=S)[nH]c3ccccc3c2=O)cc1 | inconclusive: 39.8 µM [inhibitor, single point] | –
20 | CCn1nc(-c2ccccc2)c(-c2ccccc2)c(C(=O)Nc2ccc(NC(C)=O)cc2)c1=O | inconclusive: 39.8 µM [activator, single point] | –

Row | Structure (SMILES) | Potency | max response, negative = inhibition
21 | COC(=O)C/C=C/[C@@H](C)[C@@H](/C=N/O[C@@H](C)c1cn([C@H](CO)Cc2ccccc2)nn1)NS(=O)(=O)c1ccc(C)cc1 | inconclusive: 31.6 µM [activator, single point] | –
22 | Cn1c(=O)cc(SCC(=O)N2CCN(c3ccccc3F)CC2)c2ccc(Cl)cc21 | – | inactive: 4.43%
23 | Cc1cccc2cc(/C=C3\N=C(c4ccccc4)OC3=O)c(N3CCOCC3)nc12 | inconclusive: 39.8 µM [activator, single point] | –
24 | Cc1cc2occ(CC(=O)Nc3nnc(C4CC4)s3)c2cc1C | inconclusive: 31.6 µM [inhibitor, single point] | –
25 | Cc1cc(C)c(S(C)(=O)=O)c(Oc2ccc(F)cc2)n1 | – | inactive: -1.54%
26 | O=C(COc1ccc(Br)cc1)N1CCN(c2ccc([N+](=O)[O-])c(N3CCCCC3)c2)CC1 | inconclusive: 39.8 µM [inhibitor, single point] | –
27 | Cc1ccc(NC(=O)c2nc(S(C)(=O)=O)ncc2N(Cc2ccco2)Cc2cccs2)cc1C | inconclusive: 39.8 µM [inhibitor, single point] | –
28 | O=C1CC(=C2c3ccccc3-c3ccccc32)C(=O)N1CCCCN1CCN(c2ccccc2)CC1 | active: 15.8 µM | –
29 | Cc1ccc(SC(c2ccccc2)C(Cn2cncn2)C(=O)c2ccccc2)cc1 (stereo not given) | inconclusive: 39.8 µM [inhibitor, single point] | –
30 | Brc1ccc(-c2nnc3sc(CNCc4ccc5c(c4)OCO5)cn23)cc1 | inconclusive: 31.6 µM [inhibitor, single point] | –
31 | COc1ccc(NC(=O)c2sc3nc(C(F)(F)F)cc(C)c3c2N)cc1OC | inconclusive: 3.98 µM [activator, partial curve] | –
32 | CCOC(=O)C1=C(C)N=C2SC(C)C(=O)N2C1c1ccc(OC(C)=O)c(OCC)c1 (stereo not given) | inconclusive: 31.6 µM [activator, single point] | –
33 | Cc1ccc(-n2nnnc2C(Cl)c2nnnn2-c2ccc(C)cc2)cc1 | – | inactive: 5%
34 | Cc1cccc(C(=O)N2CCC(=O)N([C@H](COCc3cccc(Cl)c3)Cc3ccccc3)CC2)c1 | inconclusive: 39.8 µM [activator, single point] | –
35 | CCOC(=O)C1CCCN(C(=O)Cn2ncc3c4ccccc4n(Cc4ccccc4)c3c2=O)C1 (stereo not given) | inconclusive: 39.8 µM [activator, single point] | –
36 | C/C(=N\NC(=O)CNC(=O)C(c1ccccc1)c1ccccc1)c1ccc(C)cc1 | active: 12.6 µM | –
37 | CCN(CC)S(=O)(=O)c1ccc2c(c1)nc(CN(C)C(=O)Nc1ccc(C)c(F)c1)n2C | inconclusive: 31.6 µM [activator, single point] | –
38 | CC(=O)[C@@H]1[C@H]2[C@H](C(=O)[C@H]3OC[C@@H]2O3)[C@H]2C=Cc3ccccc3N21 | inconclusive: 39.8 µM [activator, single point] | –
39 | COc1ccc(-n2ccc(-c3nn(-c4cccc(C(F)(F)F)c4)ccc3=O)n2)cc1 | inconclusive: 39.8 µM [activator, single point] | –
40 | COc1ccc(CCNc2oc(-c3ccc(C)cc3)nc2C#N)cc1OC | inconclusive: 39.8 µM [activator, single point] | –

Row | Structure (SMILES) | Potency | max response, negative = inhibition
41 | FC(F)Sc1ccc(N=C2NN=C(c3ccc4c(c3)OCCO4)CS2)cc1 | active: 3.16 µM | –
42 | CCOc1ccc(-c2nnc(SCC(=O)NCc3ccc(Cl)cc3)o2)cc1 | active: 20 µM | –
43 | Cc1nc(NS(=O)(=O)c2ccccc2C)c2c3c(sc2n1)CCC3 | inconclusive: 39.8 µM [activator, single point] | –
44 | O=C(Nc1ccc(Br)cc1)c1cc2nc(-c3ccccc3)cc(-c3ccccc3)n2n1 | inconclusive: 39.8 µM [inhibitor, single point] | –
45 | COc1ccc(C(=O)NCCCc2nc3ccccc3n2Cc2ccccc2C)cc1OC | inconclusive: 39.8 µM [activator, single point] | –
46 | CCCCCC#CCC#CCC#CCC#CCCCC(=O)O | inconclusive: 25.1 µM [activator, single point] | –
47 | Cc1c(Cc2ccccc2)c(=O)oc2c(C)c(OCc3nn[nH]n3)ccc12 | inconclusive: 39.8 µM [activator, single point] | –
48 | Cc1ccc(CN2C(=O)C(O)(CC(=O)c3ccc(C)cc3)c3ccccc32)cc1 (stereo not given) | inconclusive: 31.6 µM [inhibitor, single point] | –
49 | COc1ccc(C(=O)c2cnc3ccc(C)cc3c2S(=O)(=O)c2ccccc2)cc1 | inconclusive: 39.8 µM [inhibitor, single point] | –
50 | O=C1CC(N2CCN(c3ccccn3)CC2)C(=O)N1CC(c1ccccc1)c1ccccc1 (stereo not given) | inconclusive: 20 µM [activator, partial curve] | –
51 | CC(=O)N[C@@H](c1ccccc1)[C@]1(C)C[C@H]1[C@@H](C)C(=O)Nc1ccc2ccccc2c1 | inconclusive: 25.1 µM [activator, partial curve] | –
52 | CCc1ccc2occ(CC(=O)Nc3nnc(C)s3)c2c1 | inconclusive: 7.94 µM [inhibitor, full curve] | –
53 | CN(C)c1ccc(-c2cncnc2NCc2cccnc2)cc1 | – | inactive: 9.78%
54 | O=C(CSc1nc2c([nH]c3ccccc32)c(=O)n1-c1ccccc1)NCc1ccc(F)cc1 | – | inactive: -4.85%
55 | CN1CCN(c2oc(COc3ccc(-c4ccccc4)cc3)nc2C#N)CC1 | inconclusive: 39.8 µM [activator, single point] | –
56 | Cc1cccc(C)c1NC(=O)NCCCN1CCN(c2ccccc2)CC1 | – | inactive: 2.34%
57 | Cc1ccccc1CCN(C(=O)CN1C(=O)c2ccccc2S1(=O)=O)C(C(=O)NCC1CCCO1)c1ccncc1 (stereo not given) | inconclusive: 39.8 µM [activator, single point] | –
58 | O=C(COC(=O)CCS(=O)(=O)c1ccc(Cl)cc1)NCCc1ccc(Cl)cc1Cl | inconclusive: 31.6 µM [activator, single point] | –
59 | COc1cc(CN(C(=O)COc2ccc(Cl)cc2)c2ccccn2)cc(OC)c1OC | inconclusive: 25.1 µM [activator, single point] | –
60 | COc1ccc(OC)c(C2=NS(=O)(=O)N(C)C(C(=O)Nc3ccc(C(C)=O)cc3)=C2)c1 | inconclusive: 39.8 µM [inhibitor, single point] | –

From PubChem BioAssay AID1476 (National Center for Advancing Translational Sciences (NCATS), 2009)
